This sample is rich in variants without activity.
B1: TPR 5TU (parent)
chain: GGAUCUUCUCGAUCUAACAAAAAAGACAAAUCUGCCACAAAGCUUGAGAGCAUCUUCGGAUGCAGAGGCGGCAGCCUUCGGUGGCGCGAUAGCGCCAACGUUCUCAACUAUGACACGCAAAACGCGUGCUCCGUUGAAUGGAGUUUAUCAUG

Variants of: B1
Test: polymerase ribozyme fitness, log enrichment relative to wild type (log ratio); higher = more active; in vitro selection for triplet polymerase activity
How it was run: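 Input and output libraries were sequenced on Illumina after a single in vitro selection round, run in triplicate on PCR-built, transcribed mutant libraries of each subunit of a heterodimeric triplet polymerase ribozyme. Selection annealed libraries to a biotinylated primer, the partner subunit and triplets, incubated them frozen at −7 °C, then gel-excised extended constructs for streptavidin-bead capture and RT-PCR. Genotypes with ≥10 input reads and ≥1 read per output were kept. Fitness is the logarithm, taken in base 2, of genotype enrichment divided by wild-type enrichment, using inverse-variance-weighted replicate averages.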

Row | Variant | polymerase ribozyme fitness (log ratio)
1 | A20U C54G A91G A106G U144C | ≤ -4.2
2 | A20U C57U A66U C95A U102C G141A U145G | ≤ -4.2
3 | A20U C85G C125A U145C | -3.41
4 | A20U C93A | -2.86
5 | A20U C93U G126A | -1.5
6 | A20U G25A C87G G100A U127G G141A | ≤ -4.2
7 | A20U G25C A49G G50A C95U C108G C131U G140U A150U | ≤ -4.2
8 | A20U G42A G62A G86U U134G G140U | ≤ -4.2
9 | A20U G42C C87U G100C C105U G140C | ≤ -4.2
10 | A20U G46C G62U C75G G92A G140C | ≤ -4.2
11 | A20U G48A G68U G83C C103G A138G G143C | ≤ -4.2
12 | A20U G50A G86U C96G | ≤ -4.2
13 | A20U G59U A91U C96G G100U | ≤ -4.2
14 | A20U G70A C76A C96U U139G | ≤ -4.2
15 | A20U G71A C95A | ≤ -4.2
16 | A20U G74A A137U | ≤ -4.2
17 | A20U G81U A98G A138C | ≤ -4.2
18 | A20U G92A A121U G141C | -4.03
19 | A20U U31C U53A C95A A113C | ≤ -4.2
20 | A20U U44A G62A C87G G140A | ≤ -4.2
21 | A20U U45A C54U G86U C103A G124A A142G | ≤ -4.2

Row | Variant | polymerase ribozyme fitness (log ratio)
22 | A20U U53A | -2.36
23 | A20U U53A A120G | -2.23
24 | A20U U53A C87U A89C G92C A147C | ≤ -4.2
25 | A20U U55A G74A G84A G117U A120U | ≤ -4.2
26 | A20U U55G C93G G94C A142G | ≤ -4.2
27 | A20U U56A | -1.87
28 | A20U U56A A73G G94A U101A | -2.45
29 | A20U U56A G58C G88A G124C | ≤ -4.2
30 | A20U U90A C123A | ≤ -4.2
31 | A21C A22G G34U G46U G67C U77C C87A | ≤ -4.2
32 | A21C A22U G86U U102C C116U A122G A138U | ≤ -4.2
33 | A21C A22U G88C A98G G141A U148C | ≤ -4.2
34 | A21C A23G A37C C95G | ≤ -4.2
35 | A21C A23G A47C G88A G124U U151G | ≤ -4.2
36 | A21C A23G G46A A73G G94C G112A | ≤ -4.2
37 | A21C A23U A39G U53A C54U | ≤ -4.2
38 | A21C A24C G84C C85U A97U A115U G133U U148G | ≤ -4.2
39 | A21C A24G A39G C54U U78G G94A C129G U134G G140U U145G | ≤ -4.2
40 | A21C A24U A30C A49U U55G C99U | ≤ -4.2
41 | A21C A24U C38G C93U G117A | -2.15
42 | A21C A24U C54G C85U A121C | -0.525

Row | Variant | polymerase ribozyme fitness (log ratio)
43 | A21C A26C G71C C76G C87A C108U | ≤ -4.2
44 | A21C A28U G59C U82C C96U G112A | ≤ -4.2
45 | A21C A29C C75G | ≤ -4.2
46 | A21C A29G U44G C63U G68U C103U A137G G143U | ≤ -4.2
47 | A21C A30C A41U A64U C103G A115C A119C G128A G133U | ≤ -4.2
48 | A21C A30G A39U C93A U127C | ≤ -4.2
49 | A21C A37C G84A | 0.0671
50 | A21C A37G C93U C114G U127G A147G | ≤ -4.2
51 | A21C A37U A40C G88C U104G A106U | ≤ -4.2
52 | A21C A39G A41C G94U A119C A142U | ≤ -4.2
53 | A21C A40C G48A C85A G94C | -2.1
54 | A21C A41C A115G | -1.51
55 | A21C A49C G80C C85A C93A C96U A138U A142U | ≤ -4.2
56 | A21C A60U | -0.52
57 | A21C C27G C75G U82A G92C U109C G117U | ≤ -4.2
58 | A21C C32G A91C C93U A142U | ≤ -4.2
59 | A21C C32G U56A A91C C95U U104A A110U A138U | ≤ -4.2
60 | A21C C32U A60C C96A | ≤ -4.2
61 | A21C C35A A39C G100C G136U | ≤ -4.2
62 | A21C C35A G84A G117A U127G | ≤ -4.2
63 | A21C C35U C75U G92C C96A C108U C131U A142C | ≤ -4.2

Row | Variant | polymerase ribozyme fitness (log ratio)
64 | A21C C35U G68A G71C A91U C149A U151G | ≤ -4.2
65 | A21C C35U U53A C87G U111G A137U | ≤ -4.2
66 | A21C C36U U56A C76A C93A G141C | ≤ -4.2
67 | A21C C43U C79G G83U C87G A91G A119U G141A | ≤ -4.2
68 | A21C C54A C57G A107C G141A | ≤ -4.2
69 | A21C C57A G81U C85A U139G | -0.214
70 | A21C C57G G81A A115C | -1.84
71 | A21C C63A U77G | ≤ -4.2
72 | A21C C85A U127A | ≤ -4.2
73 | A21C C87U A147U | 0.884
74 | A21C G25A | -2.85
75 | A21C G25C U53A | -3.09
76 | A21C G25U C96A A97G | -3.82
77 | A21C G34C A39U U55A C95G U104A A119G U144G U146A | ≤ -4.2
78 | A21C G34U U61A C87U U134G U135A G141C | ≤ -4.2
79 | A21C G50A U102A | -1.21
80 | A21C G50C A60C A64U A66G G83A | ≤ -4.2
81 | A21C G50C G62A A91C | ≤ -4.2
82 | A21C G67C G86C A98U C129U A137G A138C | ≤ -4.2
83 | A21C G68U | ≤ -4.2
84 | A21C G68U C93U C95U | ≤ -4.2
